No constants are given. Whether binding was seen depends on the method and setting. In cells and extracts the contact can be indirect. Some binding calls cover weakened binding; strength is not graded here.
Legend:
[1] = biological target: GST-fused MVI globular tail domain (rat) (UniProt D4A5I9); experiment: pull-down; GST-MVI globular tail or GST alone on Glutathione Sepharose 4B, PC12 cell homogenate; eluted fractions probed by immunoblot; only the target purified
[2] = biological target: Myosin VI (endogenous, PC12 cells) (rat (endogenous in PC12)) (UniProt D4A5I9); experiment: proximity ligation; Duolink in situ PLA on fixed PC12 cells; rabbit anti-MVI with mouse anti-hnRNPU or anti-nucleolin; primary antibodies omitted as negative control
[3] = biological target: Myosin VI (endogenous, PC12 cells) (rat (endogenous in PC12)) (UniProt D4A5I9); experiment: co-IP; endogenous proteins from stimulated PC12 cell lysates; anti-MVI or anti-hnRNPU antibody (normal rabbit serum as control), A/G agarose beads, 4°C; 50 mM Tris pH 7.5, 150 mM NaCl, 2 mM EDTA, 0.2% Triton X-100, 2 mM MgCl2, 2 mM MgATP

By UniProt entry, the sequences of proteins in these tests, tags left out. Where a name states a change or a piece, a line headed by the entry shows the natural chain unless it says otherwise. Chains listed by the source or under a name are the forms on record and can include a tag or linker. Residues count along the entry.
UniProt D4A5I9: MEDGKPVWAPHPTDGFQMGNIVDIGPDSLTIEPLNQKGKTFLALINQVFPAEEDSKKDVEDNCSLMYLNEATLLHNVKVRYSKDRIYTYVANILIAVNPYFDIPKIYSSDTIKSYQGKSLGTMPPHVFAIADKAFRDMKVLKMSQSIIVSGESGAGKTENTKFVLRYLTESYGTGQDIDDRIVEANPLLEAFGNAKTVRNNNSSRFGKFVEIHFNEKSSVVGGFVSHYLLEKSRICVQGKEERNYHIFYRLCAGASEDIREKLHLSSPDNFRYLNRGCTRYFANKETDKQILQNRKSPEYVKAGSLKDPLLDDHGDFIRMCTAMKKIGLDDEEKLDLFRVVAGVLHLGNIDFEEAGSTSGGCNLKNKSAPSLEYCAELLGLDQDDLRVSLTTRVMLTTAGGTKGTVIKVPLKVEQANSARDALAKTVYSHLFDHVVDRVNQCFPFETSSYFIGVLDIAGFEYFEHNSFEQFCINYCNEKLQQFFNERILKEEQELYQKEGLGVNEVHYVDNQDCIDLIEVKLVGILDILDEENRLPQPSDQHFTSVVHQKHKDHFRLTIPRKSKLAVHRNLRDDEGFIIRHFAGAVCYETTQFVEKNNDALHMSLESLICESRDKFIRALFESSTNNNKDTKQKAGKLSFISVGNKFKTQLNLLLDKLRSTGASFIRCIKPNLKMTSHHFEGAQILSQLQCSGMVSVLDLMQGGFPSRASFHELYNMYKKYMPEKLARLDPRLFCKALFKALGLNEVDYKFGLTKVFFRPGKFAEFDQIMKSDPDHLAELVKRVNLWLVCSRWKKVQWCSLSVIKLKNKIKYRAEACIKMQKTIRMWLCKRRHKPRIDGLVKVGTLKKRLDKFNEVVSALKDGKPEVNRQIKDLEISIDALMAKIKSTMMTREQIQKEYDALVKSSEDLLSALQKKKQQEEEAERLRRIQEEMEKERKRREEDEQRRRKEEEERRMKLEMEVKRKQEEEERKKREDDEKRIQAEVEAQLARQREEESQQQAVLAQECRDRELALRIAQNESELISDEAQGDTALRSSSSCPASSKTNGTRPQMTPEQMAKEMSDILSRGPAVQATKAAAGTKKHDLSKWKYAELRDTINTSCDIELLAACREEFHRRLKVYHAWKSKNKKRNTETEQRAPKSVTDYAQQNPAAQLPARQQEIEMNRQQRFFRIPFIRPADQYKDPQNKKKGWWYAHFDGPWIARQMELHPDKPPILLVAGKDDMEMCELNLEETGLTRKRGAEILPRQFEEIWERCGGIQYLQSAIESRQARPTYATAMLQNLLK
GST-fused MVI globular tail domain: residues 1046-1285 of D4A5I9
UniProt Q00438: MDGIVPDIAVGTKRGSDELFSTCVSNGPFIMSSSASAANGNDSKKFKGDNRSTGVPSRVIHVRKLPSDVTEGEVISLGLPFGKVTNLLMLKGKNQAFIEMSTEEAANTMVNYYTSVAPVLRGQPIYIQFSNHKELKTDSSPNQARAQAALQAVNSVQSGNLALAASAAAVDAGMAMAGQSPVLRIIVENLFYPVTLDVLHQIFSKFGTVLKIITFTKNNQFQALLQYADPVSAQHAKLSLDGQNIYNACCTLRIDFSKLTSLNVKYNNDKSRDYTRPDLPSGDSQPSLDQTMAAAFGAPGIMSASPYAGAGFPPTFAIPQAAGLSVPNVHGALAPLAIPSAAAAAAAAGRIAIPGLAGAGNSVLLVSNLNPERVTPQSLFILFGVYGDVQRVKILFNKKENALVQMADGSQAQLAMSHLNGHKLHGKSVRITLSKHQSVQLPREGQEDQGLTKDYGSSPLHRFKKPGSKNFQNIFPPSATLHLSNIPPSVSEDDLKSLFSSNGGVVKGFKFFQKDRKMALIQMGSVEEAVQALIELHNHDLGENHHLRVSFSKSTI
UniProt Q6IMY8: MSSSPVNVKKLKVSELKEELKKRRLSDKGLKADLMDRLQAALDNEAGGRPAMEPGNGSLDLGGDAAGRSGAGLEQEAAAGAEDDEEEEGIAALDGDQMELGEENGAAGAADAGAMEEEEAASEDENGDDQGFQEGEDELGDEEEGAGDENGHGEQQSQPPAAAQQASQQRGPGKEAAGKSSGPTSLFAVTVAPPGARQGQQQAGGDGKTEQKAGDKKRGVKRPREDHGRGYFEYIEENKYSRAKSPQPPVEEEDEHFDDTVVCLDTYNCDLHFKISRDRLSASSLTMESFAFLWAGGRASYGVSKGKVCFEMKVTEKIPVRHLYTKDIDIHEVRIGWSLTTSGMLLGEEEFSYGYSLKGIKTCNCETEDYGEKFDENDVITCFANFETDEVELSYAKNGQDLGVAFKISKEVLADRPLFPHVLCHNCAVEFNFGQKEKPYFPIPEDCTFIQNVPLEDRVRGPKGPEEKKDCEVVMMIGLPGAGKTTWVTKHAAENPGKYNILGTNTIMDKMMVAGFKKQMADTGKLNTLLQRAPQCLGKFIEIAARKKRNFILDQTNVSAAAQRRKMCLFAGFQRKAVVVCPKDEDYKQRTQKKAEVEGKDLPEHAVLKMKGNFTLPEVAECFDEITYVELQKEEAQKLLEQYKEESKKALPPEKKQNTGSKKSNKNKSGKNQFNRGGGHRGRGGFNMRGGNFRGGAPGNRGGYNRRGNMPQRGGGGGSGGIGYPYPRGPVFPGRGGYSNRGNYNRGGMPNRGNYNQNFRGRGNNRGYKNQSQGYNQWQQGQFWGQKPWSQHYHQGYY
UniProt A7VJC2: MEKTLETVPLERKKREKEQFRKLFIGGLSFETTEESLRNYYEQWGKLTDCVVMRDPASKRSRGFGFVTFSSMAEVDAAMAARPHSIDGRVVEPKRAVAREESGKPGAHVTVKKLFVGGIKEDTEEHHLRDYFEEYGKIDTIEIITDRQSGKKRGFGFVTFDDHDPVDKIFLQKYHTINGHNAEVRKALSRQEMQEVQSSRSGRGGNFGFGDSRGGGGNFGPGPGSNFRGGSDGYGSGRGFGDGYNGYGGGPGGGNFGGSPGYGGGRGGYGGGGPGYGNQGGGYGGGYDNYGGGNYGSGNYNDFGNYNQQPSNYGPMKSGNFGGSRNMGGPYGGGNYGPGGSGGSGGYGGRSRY
UniProt P13383: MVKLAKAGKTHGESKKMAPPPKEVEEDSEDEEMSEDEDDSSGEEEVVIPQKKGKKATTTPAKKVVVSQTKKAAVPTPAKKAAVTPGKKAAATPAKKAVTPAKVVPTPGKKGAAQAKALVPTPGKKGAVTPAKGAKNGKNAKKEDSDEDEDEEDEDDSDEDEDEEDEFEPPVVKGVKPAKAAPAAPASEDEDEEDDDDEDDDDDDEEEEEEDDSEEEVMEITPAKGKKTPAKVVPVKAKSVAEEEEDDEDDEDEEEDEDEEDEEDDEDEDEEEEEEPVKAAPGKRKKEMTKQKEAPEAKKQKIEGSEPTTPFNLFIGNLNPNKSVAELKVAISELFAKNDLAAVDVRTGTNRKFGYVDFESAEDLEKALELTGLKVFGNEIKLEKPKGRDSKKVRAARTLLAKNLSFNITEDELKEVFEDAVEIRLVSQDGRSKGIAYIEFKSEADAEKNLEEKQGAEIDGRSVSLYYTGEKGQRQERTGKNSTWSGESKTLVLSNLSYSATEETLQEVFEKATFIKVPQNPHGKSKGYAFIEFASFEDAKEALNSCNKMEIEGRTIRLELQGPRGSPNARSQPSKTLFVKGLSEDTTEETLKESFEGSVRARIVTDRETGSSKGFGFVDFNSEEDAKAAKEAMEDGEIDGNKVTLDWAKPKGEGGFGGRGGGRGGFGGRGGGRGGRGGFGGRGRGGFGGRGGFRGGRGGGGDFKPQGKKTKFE

Molecule | binding [1] | binding [2] | binding [3]
PTBP1 (from UniProt Q00438 1-556) | no binding | – | –
SP120 /heterogeneous nuclear ribonucleoprotein U (from UniProt Q6IMY8 1-798) | binds | binds | binds
hnRNPA2/B1 (from UniProt A7VJC2 1-353) | binds | – | –

Now from value to molecule:

binding [1] | binding [2] | binding [3] | Molecule
binds | binds | – | nucleolin, isoform CRA_d (from UniProt P13383 1-713)
binds | – | – | hnRNPL (protein, UniProt F1LQ48 1-623) MSRRLLPRAEKRRRRLEQRQQPDEQLRRAGAMVKMAAAGGGGGGGRYYGGGNEGGRAPKRLKTENAGDQHGGGGGGGSGAAGGGGGENYDDPHKTPASPVVHIRGLIDGVVEADLVEALQEFGPISYVVVMPKKRQALVEFEDVLGACNAVNYAADNQIYIAGHPAFVNYSTSQKISRPGDSDDSRSVNSVLLFTILNPIYSITTDVLYTICNPCGPVQRIVIFRKNGVQAMVEFDSVQSAQRAKASLNGADIYSGCCTLKIEYAKPTRLNVFKNDQDTWDYTNPNLSGQGDPGSNPNKRQRQPPLLGDHPAEYGEGRGFPSVDSRGSCAPARRPPRKFSPVLPLFPSHPPGGPHGGYHSHYHDEGYGPPPPHYEGRRMGPPVGGHRRGPSRYGPQYGHPPPPPPPPDYGPHADSPVLMVYGLDQSKMNCDRVFNVFCLYGNVEKVKFMKSKPGAAMVEMADGYAVDRAITHLNNNFMFGQKMNVCVSKQPAIMPGQSYGLEDGSCSYKDFSESRNNRFSTPEQAAKNRIQHPSNVLHFFNAPLEVTEENFFEICDELGVKRPTSVKVFSGKSERSSSGLLEWDSKSDALETLGFLNHYQMKNPNGPYPYTLKLCFSTAQHAS

Source: PMC5973263
